# From ChEMBL document CHEMBL4888484, “Replenishing the malaria drug discovery pipeline: Screening and hit evaluation of the MMV Hit Generation Library 1 (HGL1) against asexual blood stage Plasmodium falciparum ,using a nano luciferase reporter read-out” (2022)
# The whole screen tested about 150,000 compounds, of which about 540 (0.36%) showed an effect of 50% or more. Some of the results follow.
# Tested on: Plasmodium falciparum
# Assay: Primary screen in NF54 nanoGlo assay, in single point, at 2uM, 72h; a lower Z score goes with more inhibition
# Assay type: functional, Erythrocyte
# Settings: timepoint 72 hour
SMILES,% Inhibition,Z score
CC(=O)N1CC[C@H]2[C@H](CCCN2Cc2ccc(-c3ccco3)cc2)C1,-4%,0.58
Cc1ccsc1CN(C)C(=O)C1(Oc2cccnc2C)CCNCC1,-12%,1.58
O=C(NCCN1CCOCC1)c1cc(-c2ccc3c(c2)OCCO3)nc2ccccc12,-13%,1.81
O=S(=O)(c1ccc(/C=C/c2ccccc2)cc1)N1CCOCC1,-17%,1.98
Cc1cc(C(=O)N2CC[C@H](CN)C2)c2ccc(Br)cc2n1,-6%,0.74
Cc1cccnc1CCn1cnc(-c2ccccc2)c1-c1cccnc1,7%,-0.97
C[C@H]1CNCCN1C(=O)c1coc2ccccc12,34%,-0.78
O=C(Nc1nn(Cc2ccccc2)c2cccc(N3CCOCC3)c12)[C@H]1CCCO1,-23%,2.65
Cc1cn([C@@H](C)c2ccccc2)nc1NC(=O)Cn1ncc(=O)c2ccccc21,-15%,1.44
Cc1ccc(C)c(OCCN2C(=O)N[C@@]3(CCCCc4ccccc43)C2=O)c1,5%,-1.14
CCc1c(C)[nH]c2c(-c3ccccc3)c(-c3ccccc3)nn2c1=O,-26%,3.11
CCn1c(-c2cc(NC(=O)COc3ccccc3)[nH]n2)cc2cc(OC)ccc21,13%,-1.77
CC[C@H]1C(=O)NCCN1C(=O)Nc1ccc(OC)c(OC(C)C)c1,7%,-0.77
Cc1ccc(CNC(=O)N2CCC3(CC2)[C@H](O)C[C@@H]3O)cc1,-6%,0.86
O=C(NC1CCCCCCC1)c1cccc(C(=O)NC2CCCCCCC2)c1,2%,-0.3
Cc1c(Cl)cccc1NC(=O)Cn1c(COc2ccccc2)nc2ccccc21,3%,-0.58
COCCN(Cc1cccs1)[C@@H](C)C(=O)Nc1ccccn1,2%,-0.26
Cn1ncc(NC(=O)Cn2ccc(-c3ccc(F)c(F)c3)n2)n1,0%,-0.09
Oc1cc(-c2ccc(Cl)cn2)cc2c1OCCN(Cc1nccs1)C2,-20%,3.05
O=c1ccccn1Cc1nc(C2CC2)nn1-c1cccc(Cl)c1,7%,-1.25
O=C(c1cn[nH]c1)N1CCC2(CCCC2)C1,-13%,1.61
Cc1ccccc1-n1nc(C(=O)NCCC(C)C)nc1CCc1ccccc1,7%,-1.16

SMILES,% Inhibition,Z score
Clc1cnc(N2CCc3cn[nH]c3C2)s1,-10%,1.99
COc1ncccc1C(=O)N1CC[C@H](Oc2ccc3ccccc3n2)C1,-7%,1.41
CCOc1ccc(CN2CCC[C@H]2c2nc(C)no2)cc1COC(C)=O,-6%,0.9
Cc1noc2nc(C3CC3)cc(C(=O)N(Cc3ccco3)c3ccccc3F)c12,-2%,0.43
CN(C(=O)c1ccnc(OCC(F)F)c1)c1ccnn1C,8%,-1.26
CN(CCO)C(=O)Nc1ccc(OC2CCC2)c(F)c1,-18%,1.77
CN(C)C[C@H]1CCN(C(=O)N(Cc2ccco2)c2ccc(F)cc2)C1,-3%,0.63
COc1cc(C)ccc1OCc1nc(C(=O)NCc2ccc3c(c2)OCO3)cs1,-12%,1.16
CCN(CCCN(C)C)C(=O)N[C@@H](C)c1cc2ccccc2o1,-2%,0.29
CCc1cc(CNC(=O)N(C)CCc2cccs2)[nH]n1,5%,-0.94
CC1(C)COc2c(S(=O)(=O)Nc3cc4ccccn4n3)cnn2C1,-9%,1.4
CC(C)n1cccc1C(=O)N1CC[C@@]2(CCCN(C3CCCC3)C2=O)C1,-11%,0.98
CC(NC1C2CCOC2C1(C)C)c1cnc2ccsc2c1 (stereo not given),-5%,0.41
CC(C)(C)OC(=O)N[C@H](Cc1ccccc1)C(N)=O,-5%,0.68
O=C(c1cccc(S(=O)(=O)N2CCCC2)c1)N1CCC[C@H]1c1cccs1,-21%,2.15
CCn1ncc(CN2C[C@@H]3OC(=O)N(Cc4ccccn4)[C@@H]3C2)c1C,-6%,1.18
Cc1ccccc1-c1csc(=O)n1Cc1ccc(C(N)=O)cc1,-3%,0.6
CC(C)(C#N)CCCn1ncccc1=O,-4%,0.38
CCc1nc(C)c(C(=O)N[C@H]2[C@@H]3CCO[C@@H]3[C@@H]2C2CCCC2)o1,2%,-0.27
CCCN1C(=O)N(c2ccc(=O)n(CC)c2)C(=O)[C@@H]1C,-9%,0.95
CCOC(=O)C(C(=O)OCC)N(C)C(=O)COC[C@H]1CCCO1,-9%,1.62
COc1ccc(CCC(=O)N2CC[C@H]3C(=O)N(Cc4cccc(C)c4)CC(=O)N3CC2)cc1,-13%,1.79

SMILES,% Inhibition,Z score
CC(C)(C)OC(=O)N1C[C@@H](Nc2cccc(-n3cnc4ccccc43)n2)CC2(CCOCC2)C1,-19%,2
CCCN(C)c1nccn2c(=O)n(CC(=O)Nc3ccc4c(c3)OCCO4)nc12,-3%,0.32
CC(C)Cc1noc(C2(c3cccc(Br)c3)CCOCC2)n1,-3%,0.67
CC(O)CC(C)(C)CNC(=O)NCC1CCOC1c1ccccc1 (stereo not given),5%,-0.74
Cc1cc(CN[C@@H](C)c2n[nH]c(=O)n2C)ccc1F,-14%,1.16
CN1C(=O)c2cc(C(=O)NCc3ccccc3Cl)nn2C[C@@]1(C)C(=O)NC1CCCCC1,13%,-1.47
CCCN(CCC)S(=O)(=O)N1CCc2c(O)nn(C)c2C1,0%,0.01
Cc1ccc(C(=O)N(C)CCc2noc(-c3cc4cc(Cl)ccc4[nH]3)n2)s1,-14%,2.61
CN(C)C(=O)C1(CNc2cnc(C#N)cn2)CCCC1,9%,-1.13
CCc1ccc(CN2CCC(OCCOC)CC2)o1,-5%,0.51
CC(C)OCCNC(=O)NCc1ccnc2ccccc12,1%,-0.14
CC(C)CCS(=O)(=O)Nc1cccc2[nH]cnc12,13%,-1.79
CC1CN(C(=O)Cc2csc(-c3cccnc3)n2)CC(C)O1 (stereo not given),-15%,2
CN1CC[C@@H](C(=O)Nc2cnccc2Nc2ccccc2)S1(=O)=O,-7%,0.84
CCC[C@@H](CCC(=O)Nc1ccccn1)C(=O)O,-8%,1.1
N#CCN(C(=O)c1ccc2ccccc2c1)C1CCCC1,-5%,0.62
CCCn1cnnc1Cn1cnc(-c2ccccc2)c1-c1ccccc1OCC,-7%,1.43
CC(C)(C)c1nc(C(=O)NCCn2cnc(C(=O)O)c2)cs1,-12%,1.6
NS(=O)(=O)c1ccc(CCNc2nccn3cnnc23)cc1,-8%,1.57
COc1ccc(-c2noc(-c3ccc(N4CCC(N5CCCCC5)CC4)nc3)n2)cc1,1%,-0.07
O=C(NCCc1cnc(C2CC2)nc1)c1nccc2cccnc12,-7%,0.93
Cc1ccsc1[C@H]1CCN(C(=O)c2ccccc2C#N)C[C@@H]1O,-17%,2.06

SMILES,% Inhibition,Z score
Cc1nc2ccc(NC(=O)N3Cc4ccccc4C(C)(C)C3)cn2n1,0%,0
CCc1ccccc1CNC(=O)C1CC(O)CN1 (stereo not given),-6%,1.23
C[C@H](NC(=O)NCc1nnc(-c2ccccc2)s1)c1cnn(C)c1,4%,-0.58
CCc1occc1C(=O)NC[C@H]1CCCCN1CCO,17%,-2.69
CC[C@H](C)NC(=O)c1ncccc1C(=O)OC(C)(C)C,-8%,1.06
CC(C)(CNCc1ccc(F)cc1)S(C)(=O)=O,-8%,1.14
CC1CCN(S(=O)(=O)c2cccn(CC(=O)N3CCCCC3)c2=O)CC1,7%,-1.35
CN1CC[C@@H](CNC(=O)c2ccnc3c2ncn3C)[C@@H]1c1cccnc1,1%,-0.18
CC(C)N(Cc1cc(-c2ccccc2)[nH]n1)C(=O)c1ccn(C(C)C)n1,-1%,0.12
Cc1ncc(-c2ccccc2)cc1N1C(=O)NC2(CCCCC2)C1=O,4%,-0.7
Cc1cccc(OCCc2noc(C3CN(C(=O)C4CCC4)C3)n2)c1,-17%,2.19
COc1cc2c(cc1OC)CN1C(=O)N(CCC(=O)NCc3cccnc3)C(=O)[C@@H]1C2,-4%,0.57
C=CCN1CC[C@H](Cn2cnc(-c3ccccc3)c2-c2cccc(C)n2)C1,-9%,1.49
COC[C@@H]1C[C@@H](OC)CN1C(=O)c1nn(-c2ccc(F)cc2)cc1C,0%,-0.04
CN1CCN([C@H]2CN(C(=O)c3cccc(CCC(C)(C)O)c3)C[C@@H]2O)CC1,-9%,1.28
Cc1cc(O)nc(C(=O)N[C@@H](CC(C)C)CN(C)C)c1,-24%,2.6
COc1ccnc(-c2cc(O)cc(CC[C@H]3CCCCN3)c2)n1,-4%,0.49
CCC(NC1CCNC1=O)c1ccc(Cl)cc1 (stereo not given),-9%,1.15
CCc1[nH]ncc1C(=O)NCCc1ccc(C(F)(F)F)cn1,-4%,0.44
